Consider 69 molecules from PubChem BioAssay AID1645882 (National Center for Advancing Translational Sciences (NCATS), 2021).

Structures are written as SMILES. In all, about 16,000 compounds went through this assay and about 120 (0.75%) were called active. About 4% were inconclusive and are not listed. The call rests on the fitted dose curve; in most records, active means well fitted inhibition curve with a large enough effect; inconclusive means small, poorly fitted or top-dose-only effect; inactive means no such curve, though single readings can be large or run the other way. The list shows a part of the results.

UniProt O95398, sequence (O95398 whole entry, looked up): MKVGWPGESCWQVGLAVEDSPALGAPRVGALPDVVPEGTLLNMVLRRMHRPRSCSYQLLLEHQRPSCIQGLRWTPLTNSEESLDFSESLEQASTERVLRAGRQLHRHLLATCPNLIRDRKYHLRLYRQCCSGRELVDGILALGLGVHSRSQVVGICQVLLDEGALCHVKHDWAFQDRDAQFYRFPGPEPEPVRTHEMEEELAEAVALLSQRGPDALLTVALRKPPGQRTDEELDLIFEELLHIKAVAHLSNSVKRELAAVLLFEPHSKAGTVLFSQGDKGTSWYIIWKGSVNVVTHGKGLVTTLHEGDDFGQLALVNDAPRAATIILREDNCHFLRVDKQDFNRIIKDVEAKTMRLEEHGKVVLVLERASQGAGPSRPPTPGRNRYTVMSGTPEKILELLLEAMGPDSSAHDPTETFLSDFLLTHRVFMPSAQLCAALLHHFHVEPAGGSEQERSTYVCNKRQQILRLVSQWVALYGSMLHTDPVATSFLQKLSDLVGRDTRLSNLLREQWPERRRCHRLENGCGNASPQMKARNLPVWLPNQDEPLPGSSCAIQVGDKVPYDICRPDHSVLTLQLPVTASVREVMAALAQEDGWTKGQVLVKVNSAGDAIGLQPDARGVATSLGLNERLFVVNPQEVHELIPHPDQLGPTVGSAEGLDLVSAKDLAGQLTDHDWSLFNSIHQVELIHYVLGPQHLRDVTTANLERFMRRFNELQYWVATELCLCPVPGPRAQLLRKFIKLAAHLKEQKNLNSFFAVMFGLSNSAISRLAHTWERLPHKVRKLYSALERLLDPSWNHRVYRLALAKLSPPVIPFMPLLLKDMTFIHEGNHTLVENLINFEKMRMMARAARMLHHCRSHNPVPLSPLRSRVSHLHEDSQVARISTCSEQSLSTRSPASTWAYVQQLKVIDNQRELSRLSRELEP

The assay deals with Rap guanine nucleotide exchange factor 3 (Homo sapiens) (UniProt O95398). The assay can be described thus: Validation qHTS for antagonist of cAMP-regulated guanine nucleotide exchange factor 3 (EPAC1).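 Further: plate controls were DMSO for no effect and ATA control for full effect; nearly all actives have a fitted effect of over 75% in size.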 The following applies: EPAC1 Rap1B-BODIPY-GDP exchange, fluorescence; series mostly up to 150 µM; activity change, negative = inhibition: at the top concentration. Summed up:
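EPAC1 (100 nM) mixed with 250 nM RAP1B-BODIPY-GDP and 50 uM GDP; compounds in concentration series, 5 min at room temperature. Fluorescence (ex 480/em 540 nm) read every 5 min for 30 min; normalized to ATA control and DMSO.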
On to `CCn1c(-c2ccccc2F)nc2cc(C(=O)NCC3CCOCC3)cc(NC(C)=O)c21`, for which the “activity change, negative = inhibition” value was inactive: 16.5%. In the case of `CCCCC/C=C\C/C=C\C/C=C\C=C\[C@@H](O)CCCC(=O)O`, the activity change, negative = inhibition is inactive: 25.8% [at 1.57 µM]. As for `COc1c2c(cc3c1C(NC(N)=O)[N+](C)(C)CC3)OCO2` (centres undefined), the figure is inactive: 16.2%; as for `CC1=C(C(=O)OCc2ccccc2)N2C(=O)[C@@H](NC(=O)COc3ccccc3)[C@H]2SC1`, inactive: -6.58%; as for `CCCCCCCCCCCCCCC[C@H](O)[C@@H](N)CO`, “inactive”. The figure for `COc1ccc(Oc2ncc3ncc(=O)n(Cc4cccc(OC)c4)c3n2)cc1` is inactive: -8.12%; for `COC(=O)CCC(C)C1CCC2C3C(O)C[C@@H]4CC(O)CC[C@@]4(C)C3CC(O)[C@]12C` (some centres undefined) it is inactive: 4.95%; for `O=S1(=O)CCOCCCN1Cc1ccccc1Br` it is inactive: 13.6%. As for `CC[C@@H]1C(=O)[C@H](Cc2ccccc2)[C@H]2CCCC(=O)N3CC[C@@H]1[C@@H]23`, the figure is inactive: 5.86%; as for `COc1ccccc1-c1ccnc(-n2ncc(C(=O)N(C)C(C)c3ccon3)c2C2CC2)n1` (centres undefined), inactive: 10.7%; as for `Cc1cccc(CNC(=O)c2cnn(-c3nccc(-c4ccccc4C(F)(F)F)n3)c2C)n1`, inactive: -1.18%.

Turning to `COc1ccc(NC(=O)N2CC[C@@]3(CCCN(C(=O)c4ccco4)C3)C2)cc1`, the “activity change, negative = inhibition” value was inactive: 19.7%. As for `Cc1noc(C)c1C(=O)N1CCC2(CCN(C(=O)NC(C)C)CC2)CC1`, the figure is inactive: 10.8%. As for `Cc1cnc(CNc2cc(-c3ccoc3)ncn2)cn1`, the figure is inactive: 23.8%; as for `COc1cc(C)c(CN2CCC3(CCC(CNC(=O)c4ccnn4C)O3)CC2)cc1C` (centres undefined), inactive: 0.511%. Take `O=C(c1cnccn1)N1CCC[C@@]2(CCN(Cc3nccs3)C2)C1`: the “activity change, negative = inhibition” value was inactive: 15.7%. As for `Fc1ccc(CN(C2=NCCN2)c2c(Cl)cccc2Cl)cc1`, the figure is inactive: -10.1% [at 75.8 µM]; as for `CC(=O)Nc1ccc(/C=C/c2ccccn2)cc1`, inactive: 11.3%. As for `O=c1c(CCc2ccccc2)nc2cnc(N3CCNCC3)nc2n1Cc1cccs1`, the figure is inactive: 11.1%; as for `CN1C(=O)c2ccccc2C1=O`, inactive: 21.3% [at 320 µM]. As for `IC(I)I`, the figure is inactive: 10.6%. Regarding `COc1ccccc1-c1ccc2ncnc(N(C)Cc3ccco3)c2c1`, the “activity change, negative = inhibition” value is inactive: -22%. The figure for `O=C(O)c1nc2cc(Cl)c(Cl)cc2[nH]c1=O` is inactive: 15.8%; for `Cn1c(SCC2CCCO2)nnc1C1CCN(Cc2ccc(-c3cccc(Cl)c3)o2)CC1` (centres undefined) it is inactive: 17.5%. As for `CCC(CO)NCCNC(CC)CO` (centres undefined), the figure is inactive: 9.29%; as for `CCCC1CC(C(=O)N[C@H](C(C)O)C2OC(SC)[C@@H](O)C(O)C2O)N(C)C1` (some centres undefined), inactive: 11.2%. The figure for `OCCN(CCO)c1ccc(/C=C/c2ccnc3ccccc23)cc1` is inactive: -21.7%; for `CCCCCCCC/C=C\CCCCCCCCOC[C@H](COP(=O)([O-])OCC[N+](C)(C)C)OC(C)=O` it is inactive: 22% [at 15.3 µM]. Turning to `CC1(C)CCC(=O)N2CC[C@H]3C[C@H](OC(=O)Nc4ccc(Br)cc4)C[C@@H]1[C@H]32`, the “activity change, negative = inhibition” value is inactive: -15.1%. The figure for `O=C(c1csnn1)N1CCC2(CC1)CN(C(c1ccccc1)c1ccccc1)C2` is inactive: 6.03%; for `c1cnc(N2CCN(Cc3ccc4c(c3)OCO4)CC2)nc1` it is “inactive”. The figure for `COc1ccc(/C=C/C(=O)c2cccs2)c(OC)c1` is inactive: -20%; for `c1nc(NC2CC2)c2cc(-c3ccoc3)ccc2n1` it is inactive: -0.61%.

For `c1ccc(CNc2ncnc3ccc(-c4cccnc4)cc23)cc1`, the “activity change, negative = inhibition” value is inactive: 14.7%. The figure for `C/C(=C\CNc1ncnc2nc[nH]c12)CO` is inactive: -5.76%; for `C[C@](N)(Cc1ccc(O)c(O)c1)C(=O)O` it is “inactive”; for `CN(C)C(=O)c1ccc(-c2cncnc2NCc2cccs2)cc1` it is inactive: 22.5%. `N[C@H]1CN(c2c(F)cc3c(=O)c(C(=O)O)cn(C4C[C@@H]4F)c3c2Cl)CC12CC2` (some centres undefined): the “activity change, negative = inhibition” value is inactive: 16.6%. The figure for `CCNc1ncc2nc(-c3ccc(Cl)cc3)c(=O)n(-c3ccc(OC)cc3)c2n1` is inactive: 33.6%; for `Clc1ccc(C(Cn2ccnc2)OCc2ccsc2Cl)c(Cl)c1` (centres undefined) it is inactive: -10.6%. As for `COc1cc(=O)n2c(c1C(=O)N(C)Cc1nonc1C)CCN(Cc1cccc3ccccc13)CC2`, the figure is inactive: 5.59%. The figure for `C[N+]1(CC(=O)c2ccc(I)cc2)CCOCC1` is inactive: -0.512%. In the case of `CCCC1C(=O)N2C(N(C)C)=Nc3ccc(C)cc3N2C1=O` (centres undefined), the “activity change, negative = inhibition” value is inactive: 10.4% [at 75.8 µM]. The figure for `C=CC(C1=CC(=O)C(OC)=CC1=O)c1ccccc1` (centres undefined) is inactive: -19.4%. Consider `COc1cc2c(cc1OC)CC(=O)N(CCCN(C)C[C@H]1Cc3cc(OC)c(OC)cc31)CC2`, for which the “activity change, negative = inhibition” value is inactive: 2.07%. On to `O=C(c1cnccn1)N1CCC2(CCN(Cc3ccccc3)CC2)CC1`, for which the “activity change, negative = inhibition” value is inactive: 19.8%. For `NCC1OC(n2cnc3c(=O)[nH]c(N)nc32)C(O)C1O` (centres undefined), the “activity change, negative = inhibition” value was inactive: 2.05%.

For `CCCCCCC[n+]1ccc(/C=C/c2c[nH]c3ccccc23)cc1`, the “activity change, negative = inhibition” value was inactive: 45.2%. As for `CC[N+](CC)(CC)CCOc1ccc(/C=C\c2ccccc2)cc1`, the “activity change, negative = inhibition” value was inactive: 4.5%. The figure for `O=c1c(-c2ccccc2)nc2cnc(N3CCOCC3)nc2n1C[C@H]1CCCO1` is inactive: 9.32%. As for `CCCCCCCCCCCCOCCOCCOCCOCCOCCOCCOCCOCCOCCO`, the figure is inactive: -16.2%; as for `COCCCNc1ncnc2sc(C(=O)N3CCOCC3)c(C)c12`, inactive: 13.1%. The figure for `COC(=O)c1cc(=O)c(O)c2c(O)c(O)ccc2c1` is inactive: -12.7%. `COC(=O)C1CCCCN1Cc1nc(N2CCCN(C(C)=O)CC2)c2ccccc2n1` (centres undefined): the “activity change, negative = inhibition” value is inactive: 5.63%. The figure for `COc1cccc(-c2nc(Nc3ccncc3)c3ccccc3n2)c1` is inactive: 15.7%; for `COC(=O)/C=C/c1ccc(C(=O)NCC(=O)N[C@@H](CCC(=O)OC)C(=O)N[C@@H](CC(C)C)C(N)=O)cc1` it is inactive: 12.4%. The figure for `O=C(Nc1ccccc1)N1CC2(CCN(C(=O)c3cccc(F)c3)CC2)C1` is inactive: 9.19%. The figure for `O=c1c(-c2ccc(F)cc2)nc2cnc(Oc3ccccc3)nc2n1C1CC1` is inactive: 2.74%. Turning to `OC1(c2cccnc2)CCN(Cc2ccc3c(c2)CN(Cc2cc(F)ccc2F)CCO3)CC1`, the “activity change, negative = inhibition” value is inactive: 16.6%.

As for `NS(=O)(=O)c1ccc(Cl)c(S(N)(=O)=O)c1`, the “activity change, negative = inhibition” value was inactive: 12.7%. As for `CN(C)Cc1ccccc1-c1cncnc1NCc1cccs1`, the figure is inactive: 17.8%; as for `CCC1COCCS(=O)(=O)N1Cc1ccccc1C` (centres undefined), inactive: 12.5%; as for `COc1cc(C)c2ccccc2n1`, inactive: 25.2%. `Cc1cc2c(c(-c3cnccn3)c1)OC(CNC(=O)C1CCCN(C)C1)C2` (centres undefined): the “activity change, negative = inhibition” value was inactive: 18.7%. As for `CCc1ncnc2cc(OC)c(OC)cc12`, the figure is inactive: 1.45%. As for `COc1ccc(CNc2ccnc(-c3ccccc3OC)n2)c(OC)c1`, the figure is inactive: -10.6%; as for `Clc1ccc2nccnc2c1`, inactive: 19.4%; as for `COc1ccccc1C(=O)N1CCOc2ccc(C(C)(O)CCn3cccn3)cc2C1` (centres undefined), inactive: -13.4%.

As to `CC(=O)N1CCN(c2ccc(OCC3CO[C@@](Cn4ccnc4)(c4ccc(Cl)cc4Cl)O3)cc2)CC1` (some centres undefined), the “activity change, negative = inhibition” value is inactive: -2.44%.
